# Measured values reported in the supplement of paper PMC4604168 (melanoma cell lines).
# Some of the results follow. Single values are uncertain, as repeats are few or missing.
# Assays:
# Test in all cases: cell count relative to DMSO control; melanoma cells; higher = more viable cells
# Settings in all cases: library dose: low library concentration; 72 h
# MZ2-MEL = tested on: MZ2-MEL
# MeWo = tested on: MeWo
# RPMI7951 = tested on: RPMI7951
# RVH-421 = tested on: RVH-421
# SkMel28 = tested on: SkMel28
# SkMel2 = tested on: SkMel2
# SkMel30 = tested on: SkMel30
# UACC62 = tested on: UACC62
# SkMel5 = tested on: SkMel5
# UACC257 = tested on: UACC257
# 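Also: cell number obtained by counting DAPI-stained nuclei in high-throughput microscope images with image analysis software, screen run in 1,536-well plates.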
SMILES,cell count (MZ2-MEL) [%],cell count (MeWo) [%],cell count (RPMI7951) [%],cell count (RVH-421) [%],cell count (SkMel28) [%],cell count (SkMel2) [%],cell count (SkMel30) [%],cell count (UACC62) [%],cell count (SkMel5) [%],cell count (UACC257) [%]
"C[As](C)SC[C@H](NC(=O)CC[C@H](N)C(=O)O)C(=O)NCC(=O)O [Darinaparsin] + COCC[n+]1c2c(n(Cc3cnccn3)c1C)C(=O)c1ccccc1C2=O [YM155] (first compound 0.4 µM, partner dose 0.0004 µM)",62.4,83.5,76,98.9,74.6,91.6,71.1,95.6,,
"N.N.[Cl][Pt][Cl] [cisplatin] + C[C@@H]1CCN(C(=O)CC#N)C[C@@H]1N(C)c1ncnc2[nH]ccc12 [CP690550] (first compound 1.6 µM, partner dose 1 µM)",101,91.9,111,92.7,90.7,92.6,104,86,84.3,98.8
"Cn1cc(C2=C(c3cn(C4CCN(Cc5ccccn5)CC4)c4ccccc34)C(=O)NC2=O)c2ccccc21 [Enzastaurin] + C=C(c1ccc(C(=O)O)cc1)c1cc2c(cc1C)C(C)(C)CCC2(C)C [Bexarotene] (first compound 0.8 µM, partner dose 2 µM)",95.7,108,85.9,110,74.5,98.9,82,85.5,,
"Cn1cc(C2=C(c3cn(C4CCN(Cc5ccccn5)CC4)c4ccccc34)C(=O)NC2=O)c2ccccc21 [Enzastaurin] + NC(=O)Nc1cc(-c2cccc(F)c2)sc1C(=O)N[C@H]1CCCNC1 [AZD7762] (first compound 0.8 µM, partner dose 0.02 µM)",94.6,102,82.1,108,103,113,119,97.7,111,132
"C[As](C)SC[C@H](NC(=O)CC[C@H](N)C(=O)O)C(=O)NCC(=O)O [Darinaparsin] + C[C@]1(c2nc3c(C(N)=O)cccc3[nH]2)CCCN1 [Veliparib] (first compound 0.4 µM, partner dose 1.4 µM)",94.2,86.3,94.4,94.3,84.9,96.7,80.1,85.7,,
"Cn1cc(C2=C(c3cn(C4CCN(Cc5ccccn5)CC4)c4ccccc34)C(=O)NC2=O)c2ccccc21 [Enzastaurin] + COc1cc2ncnc(Nc3ccc(Oc4ccccc4)cc3)c2cc1OC [SrcI1] (first compound 0.8 µM, partner dose 2 µM)",91.9,113,111,108,86.3,116,110,110,110,138
"Cn1cc(C2=C(c3cn(C4CCN(Cc5ccccn5)CC4)c4ccccc34)C(=O)NC2=O)c2ccccc21 [Enzastaurin] + COc1cc(Nc2ncc(F)c(Nc3ccc4c(n3)NC(=O)C(C)(C)O4)n2)cc(OC)c1OC [Tamatinib] (first compound 0.8 µM, partner dose 0.4 µM)",97.1,88.3,51.9,93.9,91,97.5,91.1,66.5,87.5,55.3
"N.N.[Cl][Pt][Cl] [cisplatin] + Nc1ncn([C@H]2C[C@H](O)[C@@H](CO)O2)c(=O)n1 [decitabine] (first compound 1.6 µM, partner dose 0.1 µM)",83.9,72.9,81.1,89.7,97.2,96.9,92,79.8,,
"N.N.[Cl][Pt][Cl] [cisplatin] + N#Cc1c(O)c2c(-c3ccc(-c4ccccc4O)cc3)csc2[nH]c1=O [A769662] (first compound 1.6 µM, partner dose 2 µM)",104,98.5,90.8,105,104,99,110,84.6,94.3,103
"N.N.[Cl][Pt][Cl] [cisplatin] + O=C(O)[C@@H]1[O][Sb](=[O])([O][Sb]2(=[O])[O][C@H]([C@H](O)CO)[C@H](O)[C@H](C(=O)O)[O]2)[O][C@H]([C@H](O)CO)[C@@H]1O [stibogluconate] (first compound 1.6 µM, partner dose 2 µM)",104,89,87.9,123,87.7,98.8,87,85.7,,
"C[As](C)SC[C@H](NC(=O)CC[C@H](N)C(=O)O)C(=O)NCC(=O)O [Darinaparsin] + CC(C)(C)c1cnc(CSc2cnc(NC(=O)C3CCNCC3)s2)o1 [SNS-032] (first compound 0.4 µM, partner dose 0.01 µM)",105,93.8,105,116,94.8,107,111,82,81.8,80.3
"Cn1cc(C2=C(c3cn(C4CCN(Cc5ccccn5)CC4)c4ccccc34)C(=O)NC2=O)c2ccccc21 [Enzastaurin] + CN1CCN(c2ccc3nc(-c4c(N)c5c(F)cccc5[nH]c4=O)[nH]c3c2)CC1 [Dovitinib] (first compound 0.8 µM, partner dose 0.1 µM)",108,113,101,92.5,90,104,98,118,,
"Cn1cc(C2=C(c3cn(C4CCN(Cc5ccccn5)CC4)c4ccccc34)C(=O)NC2=O)c2ccccc21 [Enzastaurin] + Nc1ncn([C@H]2C[C@H](O)[C@@H](CO)O2)c(=O)n1 [decitabine] (first compound 0.8 µM, partner dose 0.1 µM)",90.3,110,81.7,110,99.8,104,88.5,90.8,,
"Cn1cc(C2=C(c3cn(C4CCN(Cc5ccccn5)CC4)c4ccccc34)C(=O)NC2=O)c2ccccc21 [Enzastaurin] + Nc1ccn([C@@H]2O[C@H](CO)[C@@H](O)C2(F)F)c(=O)n1 [gemcitabine] (first compound 0.8 µM, partner dose 0.0004 µM)",93.2,107,99.8,67.9,90,98.5,112,97.3,,
"C[As](C)SC[C@H](NC(=O)CC[C@H](N)C(=O)O)C(=O)NCC(=O)O [Darinaparsin] + Cc1nc(Nc2ncc(C(=O)Nc3c(C)cccc3Cl)s2)cc(N2CCN(CCO)CC2)n1 [dasatanib] (first compound 0.4 µM, partner dose 0.004 µM)",80.2,80.7,72.9,104,67.6,99,83.3,81.4,,
"N.N.[Cl][Pt][Cl] [cisplatin] + OCc1c[nH]c2ccccc12 [Indole-3-carbinol] (first compound 1.6 µM, partner dose 0.8 µM)",94.6,105,113,109,109,95.7,96.2,115,,
"Cn1cc(C2=C(c3cn(C4CCN(Cc5ccccn5)CC4)c4ccccc34)C(=O)NC2=O)c2ccccc21 [Enzastaurin] + COc1ccc(COc2ccc(Cc3cnc(N)nc3N)cc2OC)cc1 [GW2580] (first compound 0.8 µM, partner dose 1 µM)",96.9,129,85.6,74.8,118,99.4,101,109,92.6,105
"C[As](C)SC[C@H](NC(=O)CC[C@H](N)C(=O)O)C(=O)NCC(=O)O [Darinaparsin] + NCC(=O)Nc1ccc(-n2nc(C(F)(F)F)cc2-c2ccc3c(ccc4ccccc43)c2)cc1 [OSU03012] (first compound 0.4 µM, partner dose 1 µM)",104,62.6,93.8,108,102,91.6,44.8,87.5,91.5,111
"C[As](C)SC[C@H](NC(=O)CC[C@H](N)C(=O)O)C(=O)NCC(=O)O [Darinaparsin] + O=C(CCCCCCC(=O)Nc1ccccc1)NO [vorinostat] (first compound 0.4 µM, partner dose 0.08 µM)",122,100,109,98.4,97,103,121,91,103,93.5
"N.N.[Cl][Pt][Cl] [cisplatin] + Cc1cc(N2CCOCC2)cc2[nH]c(-c3c(NC[C@@H](O)c4cccc(Cl)c4)cc[nH]c3=O)nc12 [BMS536924] (first compound 1.6 µM, partner dose 0.2 µM)",99.4,93.3,104,97.1,107,93.6,88.9,110,94.5,97.6
"N.N.[Cl][Pt][Cl] [cisplatin] + C[C@@H](Oc1cc(-c2cnn(C3CCNCC3)c2)cnc1N)c1c(Cl)ccc(F)c1Cl [Crizotinib] (first compound 1.6 µM, partner dose 0.2 µM)",102,91.4,101,102,109,106,84.8,93.9,,
"Cn1cc(C2=C(c3cn(C4CCN(Cc5ccccn5)CC4)c4ccccc34)C(=O)NC2=O)c2ccccc21 [Enzastaurin] + COc1ccc2c(c1)CCC1C2CCC2(C)C(NCCCCCCN3C(=O)C=CC3=O)CCC12 [U73122] (first compound 0.8 µM, partner dose 0.4 µM)",92.8,104,104,152,86.6,106,92.4,89,94.5,70.7
"Cn1cc(C2=C(c3cn(C4CCN(Cc5ccccn5)CC4)c4ccccc34)C(=O)NC2=O)c2ccccc21 [Enzastaurin] + Nc1cccc2c1CN(C1CCC(=O)NC1=O)C2=O [lenalidomide] (first compound 0.8 µM, partner dose 1 µM)",93.1,102,95.1,103,98.7,104,115,116,,
"N.N.[Cl][Pt][Cl] [cisplatin] + C=C(c1ccc(C(=O)O)cc1)c1cc2c(cc1C)C(C)(C)CCC2(C)C [Bexarotene] (first compound 1.6 µM, partner dose 2 µM)",107,88.3,82.5,78.2,93.2,91.9,85.3,86.8,,
"Cn1cc(C2=C(c3cn(C4CCN(Cc5ccccn5)CC4)c4ccccc34)C(=O)NC2=O)c2ccccc21 [Enzastaurin] + Cc1cc(SCc2sc(-c3ccc(C(F)(F)F)c(F)c3)nc2C)ccc1OCC(=O)O [GW0742] (first compound 0.8 µM, partner dose 2 µM)",98.1,100,84.4,94.9,87.5,97.3,129,98.4,98.7,105
"C[As](C)SC[C@H](NC(=O)CC[C@H](N)C(=O)O)C(=O)NCC(=O)O [Darinaparsin] + Cn1c(Nc2ccc(C(F)(F)F)cc2)nc2cc(Oc3ccnc(-c4ncc(C(F)(F)F)[nH]4)c3)ccc21 [CHIR265] (first compound 0.4 µM, partner dose 0.08 µM)",84.4,84.1,75.7,90.3,52.1,91.9,66.8,51.1,,
"Cn1cc(C2=C(c3cn(C4CCN(Cc5ccccn5)CC4)c4ccccc34)C(=O)NC2=O)c2ccccc21 [Enzastaurin] + CCCCCCCCc1ccc(CCC(N)(CO)CO)cc1 [fingolimod] (first compound 0.8 µM, partner dose 2 µM)",97.2,115,82.8,80.7,77.7,98.5,113,96.6,,
"Cn1cc(C2=C(c3cn(C4CCN(Cc5ccccn5)CC4)c4ccccc34)C(=O)NC2=O)c2ccccc21 [Enzastaurin] + CN(c1ncccc1CNc1nc(Nc2ccc3c(c2)CC(=O)N3)ncc1C(F)(F)F)S(C)(=O)=O [PF562271] (first compound 0.8 µM, partner dose 0.08 µM)",79.6,113,70.8,82.1,84.8,94.6,91.2,91.6,,
"N.N.[Cl][Pt][Cl] [cisplatin] + COCC[n+]1c2c(n(Cc3cnccn3)c1C)C(=O)c1ccccc1C2=O [YM155] (first compound 1.6 µM, partner dose 0.0004 µM)",66.7,108,92.3,87,131,87.4,111,106,,
